{"source": "paper PMC10726135", "note": "The list shows a part of the results. At the low end of the ranking, values are background and their order means little. Measured with an extract: partners may take part in the binding."}
{"molecular_target": "T1, HNF4alpha2 (COS-7 nuclear extract) (UniProt P41235)", "T1 sequence": "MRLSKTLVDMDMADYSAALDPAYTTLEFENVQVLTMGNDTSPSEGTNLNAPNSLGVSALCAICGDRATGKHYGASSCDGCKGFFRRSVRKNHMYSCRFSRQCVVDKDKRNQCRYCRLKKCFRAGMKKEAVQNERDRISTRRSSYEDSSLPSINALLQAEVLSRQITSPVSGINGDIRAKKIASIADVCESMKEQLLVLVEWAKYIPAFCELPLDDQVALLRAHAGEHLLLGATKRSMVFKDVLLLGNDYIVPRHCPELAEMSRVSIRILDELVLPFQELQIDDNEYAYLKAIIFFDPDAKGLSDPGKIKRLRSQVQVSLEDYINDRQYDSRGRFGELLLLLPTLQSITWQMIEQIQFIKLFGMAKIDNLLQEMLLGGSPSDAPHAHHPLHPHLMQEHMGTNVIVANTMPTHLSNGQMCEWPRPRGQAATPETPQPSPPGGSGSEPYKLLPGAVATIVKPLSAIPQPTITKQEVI", "assay": "protein-binding microarray", "details": "COS-7 nuclear extract on double-stranded Agilent 4x180k PBM; binding buffer, salt, pH and temperature not given; high values mean tight binding; double strand, one strand shown; sequences stand for … in …GCCTAGGGAGATTAGAGTATCGGTCGA"}
{"sequence": "GGAGGAAATCTCTCTGGTCAAAGGGTAAAG", "binding signal (log2 normalized intensity)": 2.34}
{"sequence": "CAAGAAGTTCCAAAGGCCAGTGTGGCTAAC", "binding signal (log2 normalized intensity)": 0.412}
{"sequence": "TGTTATTTGCTGAGGTGGGGGAGGTAGGTA", "binding signal (log2 normalized intensity)": 0.0481}
{"sequence": "TGCGACTGAGCCCTAAGAAATCTCCAAGTC", "binding signal (log2 normalized intensity)": -1.13}
{"sequence": "ACAGGGAAAGTATGGGTCAGCCCTGCCATC", "binding signal (log2 normalized intensity)": -0.817}
{"sequence": "CTAGGATCACGCCATGAGTTGGGGACAAAG", "binding signal (log2 normalized intensity)": -0.695}
{"sequence": "AGGATTCTTTATCTTAGCTTCAGCTTTGCT", "binding signal (log2 normalized intensity)": -1.14}
{"sequence": "TGTCTGGCTAAGACCTTTAGTTAGCCTTTC", "binding signal (log2 normalized intensity)": 1.4}
{"sequence": "AGAACGTTCCAAACCTACACAGACCCTCTT", "binding signal (log2 normalized intensity)": -1.06}
{"sequence": "AAGCACATCCTGTTCTAGCTCGGGGGCCCT", "binding signal (log2 normalized intensity)": -1.17}
{"sequence": "CCCGGACCAGGCCGGGTCACGTGGGTCCAG", "binding signal (log2 normalized intensity)": 3.05}
{"sequence": "TGGAACAAGGTCCCATGCACTGGCCTGGAT", "binding signal (log2 normalized intensity)": -1.12}
{"sequence": "TTAGAGAAAGGGTCAAAGGTTAAGCCATTG", "binding signal (log2 normalized intensity)": 5.92}
{"sequence": "TGCTTCTTGGCCTCTTTGTTTACACTGTGA", "binding signal (log2 normalized intensity)": 1.53}
{"sequence": "GCCCTTCCCTAACCCTTCAAGGGCCACTCA", "binding signal (log2 normalized intensity)": -0.957}
{"sequence": "GCAAGACGCCGTCTCAAAAAAAAAAAAAAG", "binding signal (log2 normalized intensity)": -1.08}
{"sequence": "CAATATTTGTTAAGTACCCACTATAGATTG", "binding signal (log2 normalized intensity)": 0.719}
{"sequence": "GCTTCCCTTTCTACTGCCAGCCAGGGCCAC", "binding signal (log2 normalized intensity)": -0.865}
{"sequence": "GGCCATTCCAGTTTTGGAGAGGGGAACGAT", "binding signal (log2 normalized intensity)": -1.21}
{"sequence": "TGTGATAAGGTGTTGAAAAGAGCATAAGGT", "binding signal (log2 normalized intensity)": 0.969}
{"sequence": "AGAAAAAGAAAAGCCTTGTGGCAGTGAGAA", "binding signal (log2 normalized intensity)": -1.18}
{"sequence": "TCCATATTTGGAAGTAAGAACCCCACTATT", "binding signal (log2 normalized intensity)": 3.03}
{"sequence": "AACCACCTATTCTGAAGATTGCTAGCTGAG", "binding signal (log2 normalized intensity)": -1.2}
{"sequence": "CCAAATTCTCCCAGGCCATACAGATACCCA", "binding signal (log2 normalized intensity)": -0.972}
{"sequence": "CCCTTCCTCTGCAGCCGCCCTTTTGCCTCC", "binding signal (log2 normalized intensity)": 2.7}
{"sequence": "GAGTTGTCATCATAAAAGTTCTCATGCTAA", "binding signal (log2 normalized intensity)": -0.896}
{"sequence": "CAGCCTGATACCAGATCCTTCAGCCAAGGA", "binding signal (log2 normalized intensity)": -1.24}
{"sequence": "AACAAAACACGGACTTTGAAGCTCCAAGAT", "binding signal (log2 normalized intensity)": 0.0164}
{"sequence": "AGGCTGTTCTGATGCCATTCCCTGCAGGTG", "binding signal (log2 normalized intensity)": -1.05}
{"sequence": "ATTGTTAGCCTAAACTATCTGGTGCGGTCC", "binding signal (log2 normalized intensity)": -0.178}
{"sequence": "CTAGAGGCCTTCTCTGTGAACACACCGTAG", "binding signal (log2 normalized intensity)": -1.13}
{"sequence": "ATAGGTTACCTTGACCAAAGTACAGTAATT", "binding signal (log2 normalized intensity)": 2.67}
{"sequence": "CGAACCTGTCTCCAGAGGACTTGCGGTGTT", "binding signal (log2 normalized intensity)": 0.482}
{"sequence": "GGACTCCCAAGATGGATTGGGTCCACACAT", "binding signal (log2 normalized intensity)": 1.63}
{"sequence": "GCTGCGGTGGGCTCCACCCAGTTCGTGCTT", "binding signal (log2 normalized intensity)": -1.11}
{"sequence": "AGCCCTTAGGACCAGGGGGGGAATGCACAG", "binding signal (log2 normalized intensity)": -1.17}
{"sequence": "TCCGAATTGGGGGAGGGTAGTCTATCTCAT", "binding signal (log2 normalized intensity)": -0.541}
{"sequence": "AGAGTGGACTCACAGCAGGAGGGCTTTCAC", "binding signal (log2 normalized intensity)": -1.19}
{"sequence": "AGGGCAGATAACAAGGGCATGTAAAGGAGA", "binding signal (log2 normalized intensity)": -1.2}
{"sequence": "TCGCACTTCAGCACCATAAAGATAAGCAAG", "binding signal (log2 normalized intensity)": -0.988}
{"sequence": "TGAATATCTGGCAAATTTGCATTAGTGGAG", "binding signal (log2 normalized intensity)": 0.8}
{"sequence": "CAGTAACTGTCATGGATGACCTCTTTTAGT", "binding signal (log2 normalized intensity)": 3.08}
{"sequence": "GCAGACCTGCCAAAGTGTACCCTGTGCTTC", "binding signal (log2 normalized intensity)": 1.89}
{"sequence": "TTAGCTTTCAGTGACTGCTCATTCTTGACC", "binding signal (log2 normalized intensity)": 1.48}
{"sequence": "CTATGTCAGGCCATTTCACCTTTGCCCTGT", "binding signal (log2 normalized intensity)": 6.82}
{"sequence": "AGTGCCTGCTTGCAGATAAAACATTTTTTT", "binding signal (log2 normalized intensity)": 0.513}
{"sequence": "CGTCAGGAGGAAGCAGCGATGGAAGGGATG", "binding signal (log2 normalized intensity)": -1.19}
{"sequence": "TGGATCATGTGTCTGAGCAAGTTTCCTCCT", "binding signal (log2 normalized intensity)": -0.544}
{"sequence": "GCGCGTGGCCCAAGGCCTCTGACATAAATC", "binding signal (log2 normalized intensity)": -1.21}
{"sequence": "ACCCTGCTGTAGTGTGTAAGTATGCTCACT", "binding signal (log2 normalized intensity)": 0.822}
{"sequence": "AGAAATCTCCAAGTCAAACATTAGCCAGGA", "binding signal (log2 normalized intensity)": -1.11}
{"sequence": "CTGTCCAGCAGACAATGGGAGACATTCCTT", "binding signal (log2 normalized intensity)": -1.14}
{"sequence": "CGCTCCCTGTGCCCACTTTCCTGGGCCGGG", "binding signal (log2 normalized intensity)": -1.03}
{"sequence": "TACACACCATAAGAGGCTCTAGATCTCAAA", "binding signal (log2 normalized intensity)": -0.982}
{"sequence": "TCACCTGCTCATTGACCCTTAGGCCAAGGC", "binding signal (log2 normalized intensity)": 2.36}
{"sequence": "TCAGAAGCAGGTCAATAGGGCAGGGGGGAG", "binding signal (log2 normalized intensity)": 0.12}
{"sequence": "AGTCTGGGAAGCTGTGTGAAGTGACTTGCC", "binding signal (log2 normalized intensity)": 0.0802}
{"sequence": "TGAGGCCGGAGGGCAGGCGGGCCGCCTTTC", "binding signal (log2 normalized intensity)": -1.14}
{"sequence": "TCTGTAAAAGCCAGCATTTCTGTGGACTGC", "binding signal (log2 normalized intensity)": 1.41}
{"sequence": "TTCTCCAGTCTATCAGACCAGCATTCTTTC", "binding signal (log2 normalized intensity)": -1.11}
{"sequence": "CTGAAGTCCCCTGTGCTTTGGCCAAATAAT", "binding signal (log2 normalized intensity)": 1.34}
{"sequence": "TCTCTTGTGCTCATGACAAAGAAATGTAAC", "binding signal (log2 normalized intensity)": 0.976}
{"sequence": "GTGTGGTGATGGCAGGAGTCAACAGGCAGA", "binding signal (log2 normalized intensity)": -0.402}
{"sequence": "CTGATAGAAAACGTTCACGTCTCAAGCTTC", "binding signal (log2 normalized intensity)": -1.08}
{"sequence": "GCCGAGCCTGCAGGTGAATGGAAACAAGAG", "binding signal (log2 normalized intensity)": -1.17}
{"sequence": "CCAATAGGTTTGATTTCAGCATGTTTAAAT", "binding signal (log2 normalized intensity)": 0.49}
{"sequence": "ATGGGTCCAAAGTTCTGAATGAGCAGACTG", "binding signal (log2 normalized intensity)": 3.18}
{"sequence": "AGAGGAGCATGGACTTCTGAGCTTGGCAAA", "binding signal (log2 normalized intensity)": -1.1}
{"sequence": "TTTCCAGTCTAAAATACCTGTTCTCCAGCT", "binding signal (log2 normalized intensity)": -1.13}
{"sequence": "GTTGTCTGTGACTGGGGTCAAACTCCACAT", "binding signal (log2 normalized intensity)": 5.65}
{"sequence": "GACACCAAACACAGTTGCTGTCTAGAAAGA", "binding signal (log2 normalized intensity)": -1.01}
{"sequence": "TCAAGAGGATTACATAACCACCACTGGGCA", "binding signal (log2 normalized intensity)": -1.22}
